# Results reported in PubChem BioAssay AID1476 (National Center for Advancing Translational Sciences (NCATS), 2009).
# “And” between values parts separate entries of the source, which are not always exact repeats. Equal entries are not always repeated. About 4,500 (2.2%) of roughly 200,000 compounds were called active. Inconclusive means that the source gave no clear call. Such entries were picked first, then a sample of the others. Calls come from the whole dose curve; as a rule, active = well fitted inhibition curve with a large enough effect; inconclusive = small, poorly fitted or top-dose-only effect, or effect the other way; inactive = flat fitted curve, though single readings scatter. Where the call is inconclusive, the potency comes from a doubtful curve fit.
# Biological target: Cruzipain (Trypanosoma cruzi) (UniProt P25779)
# Sequence of UniProt P25779 (P25779 whole entry, looked up): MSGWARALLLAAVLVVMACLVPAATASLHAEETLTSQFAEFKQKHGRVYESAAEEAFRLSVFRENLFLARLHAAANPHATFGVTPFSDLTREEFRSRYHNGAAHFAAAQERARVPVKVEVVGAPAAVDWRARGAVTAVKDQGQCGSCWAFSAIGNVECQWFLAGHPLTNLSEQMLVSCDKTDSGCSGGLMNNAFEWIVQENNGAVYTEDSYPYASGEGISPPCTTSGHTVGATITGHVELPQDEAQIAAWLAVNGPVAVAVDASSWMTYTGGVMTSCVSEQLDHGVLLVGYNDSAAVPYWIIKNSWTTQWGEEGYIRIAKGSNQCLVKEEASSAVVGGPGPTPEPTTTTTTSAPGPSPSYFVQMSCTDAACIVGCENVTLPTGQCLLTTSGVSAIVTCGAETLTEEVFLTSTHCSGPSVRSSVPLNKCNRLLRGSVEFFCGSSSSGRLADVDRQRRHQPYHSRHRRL
# Test: qHTS Assay for Promiscuous and Specific Inhibitors of Cruzain (without detergent); note: nearly all actives have a fitted effect of over 40% in size;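 for max response, negative = inhibition: plate controls were enzyme without inhibitor for no effect and buffer without enzyme for full effect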
# Conditions: purified cruzain, Z-FR-AMC fluorescence, no detergent
# Method in brief: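 Purified cruzain at 1.5 nM, pre-incubated 15 min with compound at room temperature in 100 mM sodium acetate pH 5.5, 5 mM DTT, 0.00005% Triton X-100. Reaction started with 2 uM Z-FR-AMC; AMC fluorescence increase over 60 s gives rate.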
# Potency is the fitted concentration of half-maximal effect; tags give direction and shape of the fitted curve.
SMILES,Potency,"max response, negative = inhibition"
O=C(Cn1c(CO)nc2ccccc21)Nc1cc(C(F)(F)F)ccc1N1CCOCC1,"inconclusive: 31.6 µM [activator, single point]",
COc1cc(C2c3c(-c4ccccc4O)n[nH]c3C(=O)N2Cc2ccco2)ccc1OCC(C)C (stereo not drawn),"inconclusive: 31.6 µM [inhibitor, single point]",
CCOC(=O)N1CCN(S(=O)(=O)c2ccc(C(=O)NNc3nc4ccc(Cl)cc4s3)cc2)CC1,,inactive: -22%
Cn1c(=O)c2c(-c3ccccc3)n(-n3cnnc3)cc2n(C)c1=O,active: 6.31 µM,
Cc1ccc(NC(=O)Cn2c(/C=C/c3ccccc3)nc3ccccc32)cc1C,active: 15.8 µM,
O=c1cc(/N=C/c2coc3c(ccc4ccccc43)c2=O)[nH]c(=S)[nH]1,active: 7.94 µM,
COc1cccc(/C(O)=C/c2nc3ccc(C(=O)NCCc4ccc(Cl)cc4)cc3[nH]c2=O)c1,active: 25.1 µM,
Cc1c(C(c2ccccc2Cl)c2c(O)c3ccccc3oc2=O)c(=O)n(-c2ccccc2)n1C (stereo not drawn),"inconclusive: 25.1 µM [inhibitor, single point]",
COc1ccc(C(=O)Nc2ccc(C(=O)OCc3cc(=O)n4nc(C5CC5)sc4n3)cc2)cc1,,inactive: 7.54%
Cc1ccc(/C=C(\C#N)c2nn(-c3ccccc3)c(N)c2C#N)cc1,,inactive: 1.03%
COc1ccc(CCNC(=O)CCCCn2c(=O)c3ccccc3n(Cc3ccccc3Cl)c2=O)cc1OC,"inconclusive: 6.31 µM [activator, single point]",
CCN(CCNc1ccc(Cl)cc1[N+](=O)[O-])C(=O)c1cc([N+](=O)[O-])c(N(C)C)cc1OC,"inconclusive: 39.8 µM [activator, single point]",
COc1cc2c(=O)n(Cc3ccccc3)c(=O)n(CC(=O)NCc3ccco3)c2cc1OC,"inconclusive: 5.01 µM [activator, single point]",
CCn1cc2c(n1)-c1c(oc(C(=O)Nc3cccc(C(F)(F)F)c3)c1C)CC2,,inactive: -2.93%
COc1ccc(Cn2ccc3nc(C)c(C(=O)NCc4cccc(OC)c4)cc3c2=O)cc1,"inconclusive: 39.8 µM [activator, single point]",
CCOC(=O)c1c(NC(=O)c2ccnn2C)sc(C)c1C,"inconclusive: 39.8 µM [inhibitor, single point]",
CC(C)(C)NC(=O)C(c1ccncc1)N(Cc1cccs1)C(=O)Cn1nnc(-c2cccs2)n1 (stereo not drawn),"inconclusive: 39.8 µM [activator, single point]",
N#Cc1c(C(F)(F)F)cc(C2CC2)[nH]c1=O,"inconclusive: 39.8 µM [inhibitor, single point]",
C/C(=N\Nc1ccc([N+](=O)[O-])cc1)c1ccc(N)cc1,"inconclusive: 39.8 µM [inhibitor, single point]",
CC(=O)N1CCC[C@@]2(CCN(Cc3nccs3)C2)C1,,inactive: -0.256%
Cc1c(C)n(C)c2ccc(C(=O)NCc3cccc(F)c3)cc12,"inconclusive: 31.6 µM [inhibitor, single point]",

SMILES,Potency,"max response, negative = inhibition"
O=C(O)CSc1c2c(nc3cc(C(=O)N4CCOCC4)ccc13)CCCC2,"inconclusive: 39.8 µM [activator, single point]",
CCCCCn1c(C(Cc2ccccc2)NC(=O)COC)nc2ccccc21 (stereo not drawn),"inconclusive: 31.6 µM [activator, single point]",
CCOc1cc(C(=O)OCC(=O)c2c(C)[nH]c3ccccc23)ccc1OCC(=O)N1CCOCC1,"inconclusive: 12.6 µM [activator, partial curve]",
C/C=C/CSc1nc2c(c(=O)[nH]c(=O)n2C)n1Cc1ccc(C)cc1,"inconclusive: 39.8 µM [inhibitor, single point]",
O=C1OCCN1C(=O)[C@H]1[C@H](c2ccc([N+](=O)[O-])cc2)C(c2cccc(Cl)c2)=NN1c1ccc(Br)cc1,active: 3.55 µM,
CCCCCSc1nc2sc3c(c2c(=O)n1-c1ccc(OC)cc1)CCN(C(C)=O)C3,"inconclusive: 5.01 µM [activator, full curve]",
Cc1ccc(N/N=C(\Cc2nc3ccccc3[nH]2)c2ccccc2)cc1,active: 25.1 µM,
Cc1ccc(NC(=O)c2ccc3c(c2)N(CC(=O)N2CCCCC2)C(=O)C(C)(C)O3)cc1,"inconclusive: 39.8 µM [activator, single point]",
COc1ccc(S(=O)(=O)c2c(C(=O)c3ccc(C)c(C)c3)cnc3ccc(F)cc23)cc1,active: 12.6 µM,
O=C(NCCc1nc2ccccc2[nH]1)c1ccc(Cl)c([N+](=O)[O-])c1,active: 2 µM,
CCN(CC)c1ccc(NC(=O)c2ccccc2)cc1S(=O)(=O)Nc1ccccc1OC,"inconclusive: 31.6 µM [inhibitor, single point]",
Cc1ccc(-n2nnc(-c3nc(-c4cccs4)no3)c2N)c(C)c1,,inactive: 4.12%
O=C(Nc1cccnc1)c1ccc(NC(=O)c2ccco2)cc1,"inconclusive: 39.8 µM [inhibitor, single point]",
O=S(=O)(Nc1cccc(C(F)(F)F)c1)c1ccc(-c2cnc(C3CC3)o2)cc1,"inconclusive: 39.8 µM [activator, single point]",
Cc1nnc(SCC(=O)Nc2nsc(-c3ccc(Cl)cc3)n2)s1,"inconclusive: 39.8 µM [inhibitor, single point]",
O=C(Oc1ccc2c3c(c(=O)oc2c1)CCC3)c1ccccc1[N+](=O)[O-],"inconclusive: 39.8 µM [inhibitor, single point]",
COc1ccccc1-n1nc(C(=O)Nc2ccc3c(c2)OCO3)c2ccccc2c1=O,"inconclusive: 39.8 µM [activator, single point]",
Cc1ccc(-n2nc(C(=O)NCc3ccco3)c3c4ccccc4n(C)c3c2=O)cc1,"inconclusive: 39.8 µM [inhibitor, single point]",
COc1cccc(CNc2ccc3nc(-c4ccc(N)cc4)c(OC)n3n2)c1,"inconclusive: 39.8 µM [inhibitor, single point]",
Cc1ccc(CNC(=O)C2COc3ccccc3C2)cc1 (stereo not drawn),,inactive: 1.28%
COc1ccccc1Cn1c(/C=C/c2ccccc2)nc2ccccc21,"inconclusive: 31.6 µM [inhibitor, single point]",

SMILES,Potency,"max response, negative = inhibition"
COc1ccc(CCNC(=O)CCS(=O)(=O)c2cc(Br)cc3c2N(C(C)=O)CC3)cc1OC,,inactive: 3.45%
O=C(Nc1cccc(F)c1)N1CC[C@@]2(CCCN(S(=O)(=O)c3ccccc3)C2)C1,,inactive: 2.29%
COc1ccccc1CNC(=O)CC(c1ccc(C)cc1)N1Cc2ccccc2C1=O (stereo not drawn),,inactive: -7.33%
CN(c1ccc(OCC(=O)Nc2nc(-c3ccccc3)cs2)cc1)S(=O)(=O)c1ccc(F)cc1,active: 7.94 µM,
O=C(CSc1nc(-c2ccccc2)c(-c2ccccc2)o1)Nc1nnc(-c2ccccc2)s1,active: 10 µM,
CCOC(=O)c1cnc2nc(NCc3cccc(Br)c3)[nH]n2c1=O,,inactive: -3.17%
Cc1cccc(NC(=O)COC(=O)c2cccc3c2C(=O)c2ccccc2C3=O)c1C,"inconclusive: 25.1 µM [inhibitor, single point]",
COc1ccc(CNC(=O)c2ccc3c(c2)N(Cc2ccc(C)cc2)CCS3)cc1,"inconclusive: 39.8 µM [inhibitor, single point]",
Cc1ccccc1C(=O)Nc1ccc2nc(SCC(=O)N3CCc4ccccc43)sc2c1,active: 10 µM,
COc1ccc(Cc2nc(-c3ccc(NC(=O)c4cccnc4)cc3)no2)cc1,,inactive: -24%
CCCOc1ccc(-c2nonc2NC(=O)c2cc(OC)c(OC)c(OC)c2)cc1OCCC,"inconclusive: 31.6 µM [activator, single point]",
CCc1ccc(C2=NN(CCC(=O)NCCc3ccc(OC)c(OC)c3)C(=O)CC2)cc1,"inconclusive: 31.6 µM [activator, single point]",
CC(=O)OC1c2c(ccc3ccc(=O)oc23)OC(C)(C)C1OC(=O)CC(C)C (stereo not drawn),"inconclusive: 39.8 µM [activator, single point] and inconclusive: 25.1 µM [activator, single point]",
Cc1cc2cc(CNC(=S)Nc3ccc(OC(F)F)cc3)ccc2n1C,"inconclusive: 39.8 µM [inhibitor, single point]",
COc1ccnc(Oc2ccccc2)c1C(=O)N/C=N/OCc1ccc(F)cc1Cl,"inconclusive: 31.6 µM [activator, single point]",
Clc1cccc(C2=NC(c3cccs3)=Nc3ccc(Br)cc3N2)c1,"inconclusive: 39.8 µM [inhibitor, single point]",
CCc1ccc(NC(=O)CN2C(=O)c3ccccc3Sc3ccc(C(=O)N4CCCC4)cc32)cc1,,inactive: -8.21%
CCN(CC)CCOC(=O)c1ccc(NC(=O)c2cc3c(s2)-c2ccccc2OC3)cc1,"inconclusive: 31.6 µM [activator, single point]",
CS(=O)(=O)c1ccc(CNC(=O)[C@H]2C[C@@H]2[C@H](NP(=O)(c2ccccc2)c2ccccc2)c2ccccc2)cc1,"inconclusive: 39.8 µM [activator, single point]",
O=C(Cn1ncc2c3ccccc3n(Cc3ccccc3)c2c1=O)N1CCC2(CC1)OCCO2,"inconclusive: 31.6 µM [activator, single point]",
COC(=O)C1=C(N)n2c(s/c(=C\c3cccnc3)c2=O)=C(C(=O)OC)C1c1cccnc1 (stereo not drawn),"inconclusive: 31.6 µM [activator, single point]",
